Source: the RNAGym collection of RNA variant scans (doi:10.1101/gad.245936.114)
Variants at the background level are over-represented here.

B1: tRNA (parent)
chain: CUCUCGGUAGCCAAGUUGGUUUAAGGCGCAAGACUUUAAUUUAUCACUACGAAAUCUUGAGAUCGGGCGUUCGACUCGCCCCCGGGAGAUUUUUUCCUCGAGCAA

Variants of: B1
Test: nonsense suppression (GFP-seq) (ratio to wild type); higher = more function; SUP4oc tRNA, yeast GFP reporter sort-seq
Method in brief: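 To measure nonsense suppression, tRNA variants from a library carrying ~3% random mutations were integrated into the yeast genome alongside RFP and a GFP ochre reporter under galactose control. Growth took place in raffinose/galactose medium supplemented with 80 mg/L adenine, followed by sorting into GFP/RFP bins and Illumina sequencing of each bin (phred ≥30). For each variant with ≥100 reads and ≥30 cells, the bin median GFP/RFP values were weighted by its estimated cell share per bin and referenced to the unmutated parent tRNA.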

Row | Variant | nonsense suppression
1 | CUCUCGGUAGCCAAGUUGGUUGAUGGCGCAAGACUUUAAUUUAUCACUACGAAAUCUUGAGAUCGGGCGUUCGACUCGCCCCCGGGGGUUUUUUUCCUCGAGCAA [U22G A24U A87G A89U] | ≤ 0.026
2 | CUCUCGGUAGCCAAGUUGGUUGAAGGGGCAAGACUUUAAUUUAUCACUACGAAAUGUUGUGAUCGGGCGUUCGAUUCGCCCCCGGGAUAUUUUUUCCUCGAGCAA [U22G C27G C56G A60U C75U G88U] | ≤ 0.026
3 | CUCUCGGUAGCCAAGUUGGUUGAAGGCGCAAGCCUUUAAUUUAUCACUACGAAAUCUUGAGAUCGGGCGUUCGACUCGCGCCCGGGAGAUUUUUUCCUCGAGCAA [U22G A33C C80G] | ≤ 0.026
4 | CUCUCGGUAGCCAAGUUGGUUCAAGGCGCAAGACUUUAAUUUAUCACUACGAAAUCUUGAGAUCGGGCUUUCGACUCGCCCCCGGGAGAUUUUUUCCUCGAGCAA [U22C G69U] | ≤ 0.026
5 | CUCUCGGUAGCCAAGUUGGUUGGAGGCGCAAGACUUUAAUUUAUCACUACGAAAUCUUGAGAUCGGGCGUUCGACUCGCCCCCGGGAGAUUUUUUCCUCGAGCAA [U22G A23G] | ≤ 0.026
6 | CUCUCGGUAGCCAAGUUGGUUGCAGGCGCAAGACUUUAAUUUAUCACUACGAAAUCUUGAGAUCGGGCGUUCGACUCGCCCCCGGGAGAUUUUUUCCUCGAGCAA [U22G A23C] | ≤ 0.026
7 | CUCUCGGUAGCCAAGUUGGUUCAAGGCGCAAGACUUUAAUUUAUCACUACGAAAUCUUCAGAUCGGGCGUUCGACUCGCCCCCGGGAGAUUUUUUCCUCGAGCAA [U22C G59C] | ≤ 0.026
8 | CUCUCGGUAGCCAAGUUGGUUGAAGGCGCAUGACUUUAAUUUAUCACUACGAAAUCUUGAGACCGGGCGUACGACUCGCCCCCGGGAGAUUUUUUCCUCGAGCAA [U22G A31U U63C U71A] | ≤ 0.026
9 | CUCUCGGUAGCCAAGUUGGUUCAAGGCGCAAGACUUUAAUUUAUCACUACGAAAUCUUGAGAUCGGGCGUUCAACUCGCCCCCGGGAGAUUUUUUCCUCGAGCAA [U22C G73A] | 0.848
10 | CUCUCGGUAGCCAAGUUGGUUGAAGGCGCAUGACUUUAAUUUAUCACUACGAAAUCAUGAGAUCGGGCGUUCGGCUCGCGCCCGGGAGAUUUUUUCCUCGAGCAA [U22G A31U U57A A74G C80G] | ≤ 0.026
11 | CUCUCGGUAGCCAAGUUGGUUGAAGGCGCUAGACUUUAAUUUAUCACUACGAAAUCUUGAGAUCGGGCGUUCGACUCGCCCCCGGGAGAUUUUUUCCUCGAGCAA [U22G A30U] | 0.184
12 | CUCUCGGUAGCCAAGUUGGUUGAAGGCGCAAGACUUUAAUUUAUCACUACGAAAUCUUGGGAUCGGACGUUCGCCUCGCCACCGGGAUAUUUUUUCCUCGAGCAA [U22G A60G G67A A74C C81A G88U] | ≤ 0.026
13 | CUCUCGGUAGCCAAGUUGGUUCAAGGCGCAAGACUUUAAUUUAUCACUACGAAAUCUUGAGGUCGGGCGUGCGACUCGCCCCCGGUAUAUUUUUUCCUCGAGCAA [U22C A62G U71G G86U G88U] | ≤ 0.026
14 | CUCUCGGUAGCCAAGUUGGUUCAAGUCGGAAGACUUUAAUUUAUCACUACGAAAUCUUGAUAUCGUGCGUUCGACUCGCCCCCGGGACAUUUUUUCCUCGAGCAA [U22C G26U C29G G61U G66U G88C] | ≤ 0.026
15 | CUCUCGGUAGCCAAGUUGGUUGAAGGCGAAAGAUUUUAAUUUAUCACUACGAAAUCUUGAGAUCGGGCGUUCGACUCGCCCCCGGGAGAUUUUUUCCUCGAGCAA [U22G C29A C34U] | ≤ 0.026
16 | CUCUCGGUAGCCAAGUUGGUUGAAGGCGCAAGACUUUAAUUUAUCACUACGAAAUCUUGCGAUCGGGCGUUCGACUCGCCCCCGGGAGAUUUUUUCCUCGAGCAA [U22G A60C] | 0.175
17 | CUCUCGGUAGCCAAGUUGGUUCAAGUCGCAAGACUUUAAUUUAUCACUACGAAAUCUUGAGAUCGGUCGUUCUACUCGCCCCCGGGAGAUUUUUUCCUCGAGCAA [U22C G26U G67U G73U] | ≤ 0.026
18 | CUCUCGGUAGCCAAGUUGGUUCAAGGCGCAAGACUUUAAUUUAUCACUACGAAAUCUUGAAAUCGGGCGUUCGACUCGUCCCCGGGAGAUUUUUUCCUCGAGCAA [U22C G61A C79U] | 0.197
19 | CUCUCGGUAGCCAAGUUGGUUCAAGGCGCAAGACUUUAAUUUAUCACUACGAAAUCUUGAGAUCGGGCGUUCGACUCCCCCCCGGGAGAUUUUUUCCUCGAGCAA [U22C G78C] | 0.195
20 | CUCUCGGUAGCCAAGUUGGUUCAAGGCGCAAGACUUUAAUUUAUCACUACGAAAUCUGAAGAUCAGGCGUUCGACUCGCCCCCGGGAGAUUUUUUCCUCGAGCAA [U22C U58G G59A G65A] | ≤ 0.026
21 | CUCUCGGUAGCCAAGUUGGUUCAAGGCGCAAGACUUUAAUUUAUCACUACGAAAUCUUGAGAUCGGGCGUUCGACUCGCCCGCGGGAGAUUUUUUCCUCGAGCAA [U22C C82G] | ≤ 0.026
22 | CUCUCGGUAGCCAAGUUGGUUGAAGGCGCAAGGCUUUAAUUUAUCACUACGAAACCUUGAGACCGGGCCAUCGACUCGCCCCCGCGAGAUUUUUUCCUCGAGCAA [U22G A33G U55C U63C G69C U70A G85C] | ≤ 0.026
23 | CUCUCGGUAGCCAAGUUGGUUGAAGGAGCAAGACUUUAAUUUAUCACUACGAAAUCUUGAGAUCGGGCGUUCGACUCGCACCCGGGAGAUUUUUUCCUCGAGCAA [U22G C27A C80A] | ≤ 0.026
24 | CUCUCGGUAGCCAAGUUGGUUCAAGGCGCAAGACUUUAAUUUAUCACUACGAAAUCUUAAGAUCGGGCGUUCGACUCGCCCCCGGGGGAUUUUUUCCUCGAGCAA [U22C G59A A87G] | ≤ 0.026
25 | CUCUCGGUAGCCAAGUUGGUUCAAGCCGCAAGACUUUAAUUUAUCACUACGAAAUCUUGAGAUCGGGCGUUCGACUCGCCCCCGGGAGAUUUUUUCCUCGAGCAA [U22C G26C] | ≤ 0.026
26 | CUCUCGGUAGCCAAGUUGGUUCAAGGCGUCAGGCUUUAAUUUAUCACUACGAAAUCUUGAGAUCGGGCGUUCGACUCGCCCCCGGAUGAUUUUUUCCUCGAGCAA [U22C C29U A30C A33G G86A A87U] | ≤ 0.026
27 | CUCUCGGUAGCCAAGUUGGUUCAAGGCGCAAGACUUUAAUUUAUCACUACGAAAUCUAGAGAUCGGGCGUUCGAGUCGCCCCCGGGAGAUUUUUUCCUCGAGCAA [U22C U58A C75G] | ≤ 0.026
